In patent US20240392271A1, “ENGINEERED CASX REPRESSOR SYSTEMS” (Scribe Therapeutics Inc., priority 2021, published 2024):

Key:
[1] = test system: 5′UTR sequence of the C9orf72 locus present in the GFP-TK reporter; assay: Ganciclovir survival of GFP-TK-c10 K562 reporter cells, arrayed lentiviral transduction (Example 3); conditions: dXR with ZNF10-KRAB and guide 174, 5 μg/mL ganciclovir for 5 days
Description: (§1) Specifically, TK metabolizes the typically inert pro-drug ganciclovir into a toxic thymidine analog that leads to cell death. The nucleofected cells were selected in hygromycin for 1 month, sorted to single cells and characterized for ganciclovir sensitivity.
GFP-TK-c10 cells were transduced (250,000 cells: 6-well format) with lentiviruses encoding dXR molecule containing the ZNF10-KRAB domain and gRNA with scaffold 174 (SEQ ID NO: 2238) and spacers targeting the 5′UTR sequence of the C9orf72 locus present in the GFP-TK reporter (Table 16). Transductions were carried out in an arrayed fashion in which one lentivirus was applied to one well of cells. 48 hours after transduction, cells were treated with 5 μg/mL ganciclovir for 5 days and then stained with trypan blue and counted on an automated cell counter.

[2] = test system: 5′UTR sequence of the C9orf72 locus present in the GFP-TK reporter; assay: Lentivirus competition experiments, spacer fitness by NGS before and after ganciclovir (Example 3, Table 18); conditions: GFP-TK-c10 cells, mixed lentiviruses at equal ratio, 5 days 5 μg/mL ganciclovir
Procedure: as §1
Separately, cells were transduced (250,000 cells; 6-well format) with multiple virus combinations at defined ratios (Table 17). 48 hours post-transduction, half of the cells in each well were harvested and frozen as cell pellets, and the other half were selected in the same manner (5 days; 5 μg/mL ganciclovir). After ganciclovir selection the remaining cells were harvested and gDNA was extracted from both pre- and post-ganciclovir treatment samples. Primers flanking the region containing the spacer sequence in the lentivirus constructs were used to generate amplicons for next generation sequencing analysis in which the ratios of the spacers in each well were compared pre- and post-selection. These ratios were used to calculate spacer fitness scores for each competition by taking the log 2 of the fold change in the spacer frequency from pre-selection to post-selection. Fitness was determined by the following equation: […]

Substance | cell survival after ganciclovir treatment [1] | spacer fitness in competitions (in words) [2]
Spacer 1: gRNA spacer targeting the C9orf72 5′UTR, used with dXR (ZNF10-KRAB) and guide 174 (guide CGTAACCTACGGTGTCCCGC; chemistry not fully specified) | permitted cell survival | –
Spacer 2: gRNA spacer targeting the C9orf72 5′UTR, used with dXR (ZNF10-KRAB) and guide 174 (guide TAGCGGGACACCGTAGGTTA; chemistry not fully specified) | permitted cell survival | measurably more potent than Spacer 1 in all competitions
Spacer 3: gRNA spacer targeting the C9orf72 5′UTR, used with dXR (ZNF10-KRAB) and guide 174 (guide CUUUUGGGGGCGGGGUCUAG; listed as RNA, chemistry not fully specified) | resulted in cell death | ineffective in almost all competitions
